The whole screen tested about 94,000 compounds, of which about 4,000 (4.3%) were called active. This list was built around the results that the source calls inconclusive (neither active nor inactive); the mix of calls is not that of the screen. Calls come from the whole dose curve; as a rule, active = well fitted inhibition curve with a large enough effect; inconclusive = small, poorly fitted or top-dose-only effect; inactive = no such curve, though single readings can be large or run the other way. Where the call is inconclusive, the potency comes from a doubtful curve fit.
Assay: Cytotoxic Profiling in NIH 3T3 Cell Line of Diverse Libraries Using Quantitative High-Throughput Screening; note: nearly all actives have a fitted effect of over 55% in size
Settings: NIH 3T3 viability, CellTiter-Glo ATP luminescence, 48-72 h; series mostly up to 96.7 µM
How it was run: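 Viability of NIH 3T3 cells after 48 or 72 hr compound treatment at 37 °C was assessed by CellTiter-Glo, with luminescence imaged following a 10 min room-temperature step.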
With `O=C(NCC1CCCO1)c1csc(N2CCN(c3ccc(Cl)cc3)CC2)n1` (configuration not stated) the Potency was inconclusive: 44.7 µM [inhibitor, partial curve, poor fit]. With `CCN1CCN(C(=O)C2CCCCN2Cc2ccc(-c3cc(F)ccc3OC)cc2)CC1` (configuration not stated) the Potency was active: 35.5 µM. In the case of `O=C(NC1CCCC1)N1CCC(c2noc(-c3cccnc3)n2)C1` (configuration not stated), the Potency was “inactive”. In the case of `CN(c1ccc(C(=O)N2CCn3nc(CO)cc3C2)cc1)S(C)(=O)=O`, the Potency was “inactive”. In the case of `Cc1nc2ccccc2nc1CN1CCC2(CCC(=O)N(CCO)C2)CC1`, the Potency was inconclusive: 56.2 µM [inhibitor, partial curve, poor fit]. For `O=C(NCc1ccc(F)cc1)c1cc2n(n1)CC(c1ccc3c(c1)OCO3)OC2` (configuration not stated), the Potency was inconclusive: 50.1 µM [inhibitor, partial curve, poor fit]. With `O=S(=O)(NCc1cccnc1Oc1ccc(F)cc1F)c1cccnc1` the Potency was “inactive”. In the case of `O=C(NCc1ccc(C(F)(F)F)cc1)C1CCCN(c2nccc(Nc3ccccc3F)n2)C1` (configuration not stated), the Potency was active: 31.6 µM. With `CC(C)NC(=O)c1nc(-c2ccsc2)c2cnccn12` the Potency was inconclusive: 56.2 µM [inhibitor, partial curve, poor fit]. For `O=C(c1ccc(Cl)cc1)N1CCCC2(CN[S+](=O)([O-])c3cccnc3N2)C1` (configuration not stated), the Potency was “inactive”. For `COc1ccc(C)cc1NC(=O)N1CCCC2(C1)Nc1cccnc1NC2=NC1CCCC1` (configuration not stated), the Potency was inconclusive: 50.1 µM [inhibitor, partial curve, poor fit]. In the case of `O=C1NCCCCCCN(Cc2ccncc2)[C@@H]2CN(C(=O)Nc3ccccc3F)CC[C@@H]12`, the Potency was “inactive”. In the case of `O=C1[C@H]2CN(Cc3ccc(Cl)cc3)C[C@H]2C(=O)N1CCc1ccccc1`, the Potency was inconclusive: 44.7 µM [inhibitor, partial curve, poor fit]. With `CC(O)c1cc2n(n1)CCN(Cc1cc(=O)n3nc(C4CC4)sc3n1)C2` (configuration not stated) the Potency was “inactive”. For `Fc1ccc(C2Cn3nnc(-c4nc(-c5ccc(OC(F)(F)F)cc5)no4)c3CO2)cc1` (configuration not stated), the Potency was “inactive”. In the case of `Cc1cccc(C(=O)N2CC(Oc3ccc(-c4noc(C5CCOCC5)n4)cc3)C2)c1`, the Potency was inconclusive: 44.7 µM [inhibitor, partial curve, poor fit]. In the case of `COCc1nc(C2CC(N)C2)cc(N(C)Cc2csc(C(C)C)n2)n1` (configuration not stated), the Potency was “inactive”. For `C#CCNC(=O)C1CCCN1C(=O)c1cccc(-c2cccc(OC)c2)c1` (configuration not stated), the Potency was inconclusive: 70.8 µM [inhibitor, single point]. In the case of `CCCC(=O)N1CC2(CCCN2C2COC2)Cc2ccccc21` (configuration not stated), the Potency was “inactive”. For `O=C(c1nc2cccnc2n(CCc2ccccc2)c1=O)N1CCC(c2ccccc2)CC1`, the Potency was inconclusive: 44.7 µM [inhibitor, partial curve, poor fit]. For `O=C(CCc1ccc(-c2cccs2)o1)NC[C@@H]1C[C@H](F)CN1`, the Potency was “inactive”. In the case of `Cc1noc(C)c1-c1ccc2c(n1)CN(Cc1ccc(C(F)(F)F)cc1)C(=O)CO2`, the Potency was inconclusive: 89.1 µM [inhibitor, partial curve]. For `Cc1cnc(C2CCN(C(=O)OC(C)(C)C)CC2)[nH]1`, the Potency was “inactive”. With `CCN1c2cc(C(=O)N3CCN(c4cccc(C)c4)CC3)ccc2C(=O)N2CCCCC21` (configuration not stated) the Potency was inconclusive: 20 µM [inhibitor, full curve]. With `O=C(c1ccc(C(F)(F)F)cc1)N1CCC2(CC1)CCN(Cc1cccs1)c1ccccc1O2` the Potency was active: 12.6 µM. In the case of `O=C1CC(c2ccccc2)N(Cc2ccncc2)CCCN(C(=O)C2(c3ccccc3)CC2)CCN1` (configuration not stated), the Potency was inconclusive: 35.5 µM [inhibitor, partial curve]. In the case of `O=C(c1nnc(CN2CCOCC2)n1Cc1ccccc1)N1CCC[C@@H]1c1ccc(Br)cc1`, the Potency was inconclusive: 31.6 µM [inhibitor, partial curve]. With `Cc1nn(-c2ccc(F)cc2)c(Oc2ccc(F)cc2F)c1CCC(=O)NCc1ccco1` the Potency was inconclusive: 44.7 µM [inhibitor, partial curve, poor fit]. With `C[S+](=O)([O-])N1CC2(Cc3ccccc31)CN([S+](=O)([O-])c1ccc(C(F)(F)F)cc1)C2` the Potency was inconclusive: 44.7 µM [inhibitor, partial curve, poor fit]. In the case of `C=CCC1(CO)CCCN(Cc2cc(C3CCCCC3)no2)C1` (configuration not stated), the Potency was inconclusive: 50.1 µM [inhibitor, partial curve, poor fit]. In the case of `CNC(=O)c1cc(C)nc2onc(C3CCN(C(=O)c4ccc(F)cc4)CC3)c12`, the Potency was “inactive”. In the case of `CC[C@H]1CN(S(C)(=O)=O)CC[C@H]1CC(=O)NCc1ccco1`, the Potency was “inactive”. In the case of `Cn1c(CO[C@H]2CN(Cc3ccc(C#N)cc3)C[C@H]2F)nc2ccccc21`, the Potency was “inactive”. In the case of `COCCN1Cc2ccc(NCc3ccccc3)nc2C(C)(C(=O)Nc2ccccc2)C1` (configuration not stated), the Potency was inconclusive: 25.1 µM [inhibitor, full curve]. In the case of `COc1ccccc1-c1cccc(C(=O)N2CCC[C@H]2C(=O)NCc2cccc(C(F)(F)F)c2)c1`, the Potency was inconclusive: 31.6 µM [inhibitor, full curve]. With `Cc1ccccc1CCC1CCCN(C(=O)c2cccc(O)c2C)C1` (configuration not stated) the Potency was inconclusive: 50.1 µM [inhibitor, partial curve, poor fit]. For `O=C(c1ccccc1)N1CCNc2cnc(Nc3cccc(C(F)(F)F)c3)nc2C1`, the Potency was inconclusive: 56.2 µM [inhibitor, partial curve, poor fit]. In the case of `CCCCCNC(=O)Cc1csc2nc(C)c(-c3cc(C)n(-c4ccccc4CC)n3)c(=O)n12`, the Potency was inconclusive: 28.2 µM [inhibitor, partial curve]. With `COCCN1CC(CO)C2(CCN(C(=O)c3ccc4ncccc4c3)CC2)C1` (configuration not stated) the Potency was “inactive”. In the case of `O=C1Nc2ccccc2CC12CCCN2Cc1ccc(C(F)(F)F)cc1` (configuration not stated), the Potency was inconclusive: 50.1 µM [inhibitor, partial curve, poor fit]. In the case of `O=C(NC1CCN(c2nccc(Nc3ccccc3Cl)n2)CC1)c1ccccc1`, the Potency was inconclusive: 35.5 µM [inhibitor, partial curve]. With `COc1ccc(C(=O)N2CCN(c3cc(-c4ccc(Cl)cc4)[nH]n3)CC2)cc1` the Potency was active: 7.08 µM. With `O=C(NCc1cccc(Cl)c1)c1ccc2nnc(CC3CC3)n2c1` the Potency was inconclusive: 44.7 µM [inhibitor, partial curve, poor fit]. For `Cc1noc(C)c1CCC(=O)NC1CCCc2c1[nH]c1c(Cl)cccc21` (configuration not stated), the Potency was active: 35.5 µM. In the case of `COc1ncccc1-c1nc2cc(C(=O)NCc3cccc(C(F)(F)F)c3)ccc2o1`, the Potency was inconclusive: 22.4 µM [inhibitor, full curve, poor fit]. In the case of `O=C1c2cnc(-c3ccccc3)nc2OCCN1Cc1ccc(F)cc1F`, the Potency was “inactive”. With `O=[N+]([O-])c1ccccc1CN1C[C@H](O)C[C@H]1c1nc(-c2ccc(F)cc2)no1` the Potency was inconclusive: 100 µM [inhibitor, partial curve]. With `Cc1noc(C)c1-c1cc2c(cc(-c3ccccc3)n2C)c(-c2ccnn2C)n1` the Potency was inconclusive: 15.8 µM [inhibitor, full curve, poor fit]. In the case of `Cc1cccc(OCCc2noc(C3CCN(C(=O)CN4CCCC4=O)C3)n2)c1` (configuration not stated), the Potency was “inactive”. For `O=C(Cc1ccc(-c2ccccc2)cc1)N1CC(COc2ccccc2)C2(C1)CN(C(=O)c1cn[nH]c1)C2` (configuration not stated), the Potency was inconclusive: 50.1 µM [inhibitor, partial curve, poor fit]. In the case of `O=C(c1ccc(OC2CCN(C(=O)c3cccs3)CC2)nc1)N1CCOCC1`, the Potency was inconclusive: 70.8 µM [inhibitor, partial curve, poor fit]. With `Cc1noc(C)c1-c1cc2cc(CO)oc2c(N2CCN(c3ccccn3)CC2)n1` the Potency was inconclusive: 56.2 µM [inhibitor, partial curve, poor fit]. For `Cc1c(-c2cn(C)c(=O)n3cc(COc4ccc(Cl)cc4)nc23)cnn1C`, the Potency was inconclusive: 39.8 µM [inhibitor, full curve]. With `O=C(c1ccc(Cl)nc1)N1CCC(C(=O)N2CCC(N3CCCC3=O)CC2)CC1` the Potency was “inactive”. For `Cn1nccc1C(=O)N1CCC(N2C(=O)C3(CCCCC3)C2c2ccccc2)CC1` (configuration not stated), the Potency was inconclusive: 56.2 µM [inhibitor, partial curve, poor fit]. For `CN(C)Cc1nnc(C2CCN(C(=O)CCNS(C)(=O)=O)CC2)n1C`, the Potency was “inactive”. For `CCn1ccc(C(=O)N2C[C@@H]3CCCN4CCC[C@@H]([C@H]34)[C@H]2CCCC(=O)Nc2ccccc2)n1`, the Potency was “inactive”. With `COCC1CN(C)CC12CCN(C(=O)CCCc1ccccc1)CC2` (configuration not stated) the Potency was inconclusive: 70.8 µM [inhibitor, single point]. In the case of `COc1ccccc1-c1cccc(C(=O)N2CCN([S+](=O)([O-])c3cccs3)CC2)c1`, the Potency was inconclusive: 20 µM [inhibitor, full curve]. With `COc1cccc(CCC(=O)N2CCCCCC2CN2CCC(OC)CC2)c1` (configuration not stated) the Potency was “inactive”. For `O=C(Cc1ccccc1)NC1CCCc2c1[nH]c1ccccc21` (configuration not stated), the Potency was active: 22.4 µM. In the case of `CNC(=O)c1cc(C2CC2)nc2onc(C3CCCN3C(=O)c3cccnc3)c12` (configuration not stated), the Potency was “inactive”. With `CCC1CN(Cc2nc(-c3ccc(OC)cc3F)oc2C)CCN1C(C)C` (configuration not stated) the Potency was inconclusive: 79.4 µM [inhibitor, partial curve, poor fit]. With `CN(C)c1ccc(-c2noc([C@@H]3CCCN3Cc3nc4ccccc4n3C)n2)cn1` the Potency was inconclusive: 70.8 µM [inhibitor, partial curve, poor fit]. In the case of `Cc1noc(C)c1[S+](=O)([O-])N1CCCC2(COc3ccccc3C(=O)N2)C1` (configuration not stated), the Potency was active: 35.5 µM. In the case of `CCC(CC)CN1CCC2(CC1)CC1C(=O)N(CC)C(=O)N1C2` (configuration not stated), the Potency was “inactive”. With `O=C(O)c1ccccc1CN1CCC2(Cc3ccccc3CNC2=O)C1` (configuration not stated) the Potency was “inactive”.
Potency is the fitted concentration of half-maximal effect; tags give direction and shape of the fitted curve.
